Results from PubChem BioAssay (NCATS).
Some of the results follow. These are further read-outs of the screen, such as a control signal, another cell line or another target. No call is given for them. For some assays here: Most of these compounds were active or inconclusive in the main read-out, so they are no random draw. Words in brackets tell the shape of the fitted curve; partial curves, single points and poor fits give uncertain potencies.

Assays:
[1] = molecular target: Catechol O-methyltransferase (Homo sapiens) (UniProt P21964); assay: Confirmatory Screen for Target Class Profiling of Small Molecule Inhibitors of Methyltransferases (AID 1745852); conditions: MTase-Glo luminescence, SAH detection, recombinant enzyme; measured here: COMT inhibition potency;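 also: inhibitor potency for blocking SAH production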
[2] = molecular target: Histamine N-methyltransferase (Homo sapiens) (UniProt P50135); assay: as above; conditions: MTase-Glo luminescence, SAH detection, recombinant enzyme; measured here: HNMT inhibition potency
[3] = molecular target: Nicotinamide N-methyltransferase (Homo sapiens) (UniProt P40261); assay: as above; conditions: MTase-Glo luminescence, SAH detection, recombinant enzyme; measured here: NNMT inhibition potency
[4] = molecular target: Phenylethanolamine N-methyltransferase (Homo sapiens) (UniProt P11086); assay: as above; conditions: MTase-Glo luminescence, SAH detection, recombinant enzyme; measured here: PNMT inhibition potency
[5] = qHTS drug screen for cell cycle checkpoint inhibitors in PARPi-resistant BRCA-mutant ovarian cancer cell lines. (AID 1963452); conditions: PEO1/OlaR viability, CellTiter-Glo luminescence, 96 h
Summary of the method: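 PEO1, PEO4 and PEO1/OlaR ovarian cancer cells, 600 per well, exposed 96 h at 37C to a dilution series. Viability read by CellTiter-Glo luminescence, normalized to DMSO and empty wells; activity summarized as Z-AUC.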

[6] = qHTS for identification of novel therapeutic agents for treatment of microphthalmiaassociated transcription factor (MiT) renal cell carcinoma (RCC) (AID 1963991); conditions: CellTiter-Glo, 48 h; for z-score: stronger effect = lower value
Summary of the method: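 Three TFE3-fusion RCC cell lines (UOK109, UOK124, UOK145), 500 cells/well, were exposed to the 1912-compound MIPE 4.0 library for 48 hours at 37 C. Viability was read by CellTiter-Glo luminescence, normalised to DMSO (100%) and empty wells (0%), with 11-concentration curve fits.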
Tags tell the direction and shape of the fitted curve.

Chain of UniProt P40261 (P40261 whole entry, looked up): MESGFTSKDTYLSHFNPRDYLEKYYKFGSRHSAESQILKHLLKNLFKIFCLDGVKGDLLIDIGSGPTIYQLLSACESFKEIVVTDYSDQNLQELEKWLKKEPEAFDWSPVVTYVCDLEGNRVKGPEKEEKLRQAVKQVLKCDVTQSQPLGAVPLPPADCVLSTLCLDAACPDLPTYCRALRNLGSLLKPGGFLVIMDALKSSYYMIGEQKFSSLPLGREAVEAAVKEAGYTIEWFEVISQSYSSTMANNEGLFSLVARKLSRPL
Chain of UniProt P21964 (P21964 whole entry, looked up): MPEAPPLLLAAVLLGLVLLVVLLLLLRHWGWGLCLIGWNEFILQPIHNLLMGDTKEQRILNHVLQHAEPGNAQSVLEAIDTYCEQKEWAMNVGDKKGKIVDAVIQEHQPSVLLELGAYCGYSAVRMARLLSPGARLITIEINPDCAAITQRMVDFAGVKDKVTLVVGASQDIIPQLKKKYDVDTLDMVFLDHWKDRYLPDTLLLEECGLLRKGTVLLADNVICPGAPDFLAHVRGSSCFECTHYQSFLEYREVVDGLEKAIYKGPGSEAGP
Chain of UniProt P11086 (P11086 whole entry, looked up): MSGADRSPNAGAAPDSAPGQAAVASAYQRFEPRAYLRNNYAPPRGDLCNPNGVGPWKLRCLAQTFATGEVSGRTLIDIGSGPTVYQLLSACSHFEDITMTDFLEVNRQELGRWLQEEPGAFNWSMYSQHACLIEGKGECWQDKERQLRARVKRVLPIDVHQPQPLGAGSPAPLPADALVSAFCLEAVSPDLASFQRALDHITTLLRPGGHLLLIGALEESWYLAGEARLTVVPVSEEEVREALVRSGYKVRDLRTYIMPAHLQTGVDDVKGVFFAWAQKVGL
Chain of UniProt P50135 (P50135 whole entry, looked up): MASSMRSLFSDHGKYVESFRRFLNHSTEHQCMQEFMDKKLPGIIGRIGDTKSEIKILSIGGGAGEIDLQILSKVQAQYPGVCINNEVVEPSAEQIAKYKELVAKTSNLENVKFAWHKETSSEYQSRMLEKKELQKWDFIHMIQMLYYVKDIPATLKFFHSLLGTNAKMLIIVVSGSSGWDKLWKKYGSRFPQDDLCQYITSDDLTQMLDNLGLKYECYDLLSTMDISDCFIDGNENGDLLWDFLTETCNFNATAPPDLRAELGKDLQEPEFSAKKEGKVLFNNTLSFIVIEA

Q: For `O=C(NCCc1ccc(Cl)cc1)c1ccc2c(=O)[nH]c3c(C(=O)NCC4CCCO4)sc(=S)n3c2c1` (stereo not drawn), which IC50 [1] is on record?
A: Its IC50 is 24.1 µM [falling, single point].

Q: What about the IC50 [2] of the same molecule?
A: The IC50 was 24.1 µM [falling, single point].

Q: What about the IC50 [3] of the same molecule?
A: Its IC50 is 24.1 µM [falling, partial curve].

Q: And the IC50 [4]?
A: The IC50 was 24.1 µM [falling, partial curve].

Q: Which IC50 [1] does the source give for `C[C@H](Oc1cc(-c2cnn(C3CCNCC3)c2)cnc1N)c1c(Cl)ccc(F)c1Cl` here?
A: Its IC50 is 24.1 µM [falling, partial curve].

Q: What about the IC50 [2] of the same molecule?
A: The IC50 was 19.2 µM [falling, partial curve].

Q: And the IC50 [3]?
A: The IC50 was 24.1 µM [falling, partial curve].

Q: And the IC50 [4]?
A: The IC50 was 24.1 µM [falling, partial curve].

Q: For `O=C(Nc1ccc2ncnc(N3CCCCC3)c2c1)C1CCCCC1`, which IC50 [1] is on record?
A: The IC50 was 21.5 µM [falling, partial curve].

Q: And the IC50 [2]?
A: The IC50 was 19.2 µM [falling, partial curve].

Q: And the IC50 [3]?
A: Its IC50 is 19.2 µM [falling, partial curve].

Q: And the IC50 [4]?
A: The IC50 was 17.1 µM [falling, partial curve].

Q: For `CN1CCC(CNc2ccc3ncc(-c4cccc(OC(F)(F)F)c4)n3n2)CC1`, which IC50 [1] is on record?
A: Its IC50 is 24.1 µM [falling, partial curve].

Q: And the IC50 [2]?
A: The IC50 was 19.2 µM [falling, partial curve].

Q: And the IC50 [3]?
A: Its IC50 is 24.1 µM [falling, partial curve].

Q: What about the IC50 [4] of the same molecule?
A: The IC50 was 21.5 µM [falling, partial curve].

Q: And the AC50 ([5]; measured here: PEO1 parental viability)?
A: Its AC50 is 12.3 µM [falling, partial curve].

Q: What about the AC50 ([5]; measured here: PEO4 viability) of the same molecule?
A: Its AC50 is 12.3 µM [falling, partial curve].

Q: What about the z-score ([6]; TFE3-RCC UOK109 viability, measured here: UOK109 Z-AUC) of the same molecule?
A: Its z-score is -0.222.

Q: What about the z-score ([6]; TFE3-RCC viability, measured here: UOK124 Z-AUC) of the same molecule?
A: The z-score was -0.442.

Q: What about the AC50 ([6]; TFE3-RCC viability, measured here: UOK124 cell viability) of the same molecule?
A: The AC50 was 14.8 µM [falling, partial curve].

Q: And the z-score ([6]; TFE3-RCC viability, measured here: UOK145 Z-AUC)?
A: The z-score was 0.209.

Q: What about the AC50 ([6]; TFE3-RCC viability, measured here: UOK145 cell viability) of the same molecule?
A: Its AC50 is 23.5 µM [falling, partial curve].
